# According to PMC6212790:
# Some of the results follow. At the low end of the ranking, values are background and their order means little.
# Molecular target: T1, GST-Rok-C97-191 (UniProt O34857)
# T1 sequence: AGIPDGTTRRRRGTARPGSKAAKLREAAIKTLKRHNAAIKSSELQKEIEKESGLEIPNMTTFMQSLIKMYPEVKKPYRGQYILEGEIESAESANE
# Assay: protein binding microarray;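 further: rank score from −0.5 (least bound) to 0.5 (best bound)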
# Settings: Rok is a gene silencer of Bacillus subtilis; high values mean tight binding; most listed sequences are background and not binding sites; double strand, one strand shown
row,Sequence,binding signal [E-score]
1,ATTTTGAA,0.154
2,GCACCTTA,-0.00958
3,AGAAAGGG,-0.0748
4,GGAGTGCC,-0.247
5,AGATCGCC,-0.156
6,CAAAAGAC,-0.0459
7,CGACTCGA,-0.031
8,GAATATCA,0.071
9,ACACAGGG,-0.1
10,CGCTCCCG,-0.408
11,CGATATAC,0.234
12,ATTTGGCG,-0.0817
13,CCAGCTCG,-0.079
14,GCAATTCC,0.0302
15,AGCGTTTG,0.0655
16,AGATGCTA,0.196
17,ACCTAACG,-0.0851
18,ATCGCTCG,-0.0453
19,ACTATACG,0.0223
20,TCGGAGCA,0.0824
21,CTAGGAAG,0.0357

row,Sequence,binding signal [E-score]
1,ACTCGCCG,-0.26
2,CCAATTCC,0.138
3,GCATGTGA,-0.0721
4,GTCCAGGA,-0.0853
5,AATCGTGC,-0.172
6,ACTTCCTG,-0.045
7,CCGCGAGC,-0.26
8,ACAGCGGC,-0.093
9,AGCTTCCT,-0.0469
10,CAACGACC,-0.0417
11,AAAACTAA,0.255
12,CGGCTTAG,-0.206
13,ACCGACAA,0.126
14,GAACGGTC,-0.0912
15,ACACCTCT,-0.0324
16,CCGATTAA,0.16
17,CTCTGTCA,-0.161
18,CGCTGACC,-0.153
19,GTCGGTCA,-0.0215
20,ATGGGCTG,-0.294
21,CCCCACAG,-0.201

row,Sequence,binding signal [E-score]
1,AGTGACGC,-0.00501
2,GCCTTTAA,-0.213
3,AGGGAATC,-0.0283
4,ATATGTCC,0.138
5,AAGCCCGT,-0.129
6,GCCTACCC,-0.254
7,GAGACCAA,-0.15
8,GCACGGAC,-0.195
9,GCATAATA,0.158
10,CTACCACC,0.285
11,CGTGAAAG,-0.0741
12,AGTATTCA,0.0845
13,AAATGAGT,-0.0693
14,AGGAACGA,-0.162
15,CGCGACAC,-0.15
16,ACACTCCC,-0.108
17,CTAGCCAA,0.106
18,GACGAAGC,-0.17
19,AATCGTAT,0.202
20,CTGATCCA,-0.15
21,CTGCCGAC,-0.293

row,Sequence,binding signal [E-score]
1,ATGGCGCC,-0.143
2,GAAAGACA,-0.0886
3,GCTCCTCC,-0.117
4,CCCCGAGC,-0.0928
5,AGGGTCCA,-0.233
6,CGCAGTCA,-0.135
7,TCCCGAAA,-0.0535
8,AACAGCGA,-0.0418
9,AGTAGTAT,0.368
10,AGTAAGCC,-0.169
11,CATCGATC,-0.0905
12,CCAGCCTC,-0.269
13,GTTGATCA,-0.11
14,CCAGTTCA,0.00993
15,ACAATTTA,0.29
16,GCCTGCCA,-0.249
17,CATCTTCG,-0.0283
18,GTTTGATA,0.106
19,TCAGAGGA,-0.139
